Test results as given in the supplement of paper PMC10126150.
Sequences with one replicate were seen in a single cluster, so their values are uncertain.

The sequences below were run on ATP (assay: switch fluorescence ratio, 500 uM ATP over buffer (Cy3 cluster intensity, sum of 5 cycles each) (fold (ratio)); higher = stronger signal-on switching upon ATP binding; sequences stand for … in TCGTCGGCAGCGTCAGATGTGTATAAGAGACAGTTTTTTTTTTTTTTTTTTTTTTTTT…TC). Conditions: aptamer strand: ATP DNA aptamer (quencher-CACCTGGGGGAGTATTGCGGAGGAAGG + anchor), 100 nM annealed; ATP concentration: 500 uM; one replicate.
How it was run: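 Cy3-labelled switching-strand clusters on a modified Illumina MiSeq flow-cell were annealed to 100 nM quencher-labelled ATP aptamer, imaged in selection buffer, then imaged after 15 min with 500 uM ATP at 22 °C. Five buffer/ATP cycles ran, with NaOH stripping and re-annealing between them. The fluorescence ratio is summed target-cycle over summed buffer-cycle Cy3 intensity per cluster, averaged per switch-domain sequence. Clusters outside 100-1000 RFU were excluded.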
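Also: ATP exposure 15 min at 22 °C before imaging.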

Sequence	switch fluorescence ratio
TCCCTAGTGC	1.4
TCCCTCACCG	1.02
TCCCTCCCTT	1.16
TCCCTCTCTG	1.02
TCCCTTTAGC	1.02
TCCGACTAA	4.04
TCCGACTTAA	3.45
TCCGAGGACA	1.06
TCCGAGTAAA	3.14
TCCGAGTGGG	1.05
TCCGCCGCT	3.41
TCCGCGCCTA	1.31
TCCGCTACAG	2.51
TCCGCTGATG	1.63
TCCGCTTAGA	1.53
TCCGGAACTC	1.55
TCCGGATCTC	1.35
TCCGGCTAGG	1.01
TCCGGGACGC	1.15
TCCGGGATCG	1.02
TCCGGGGACT	1.2
TCCGGGGGA	3.09
TCCGGGGGCT	1.13
TCCGGGTAGA	1.02
TCCGGTACCG	1.01
TCCGTACTAG	1.04

Sequence	switch fluorescence ratio
TCCGTAGTAG	3.4
TCCGTATTTC	1.42
TCCGTGCCCT	2.26
TCCGTGTCCA	1.03
TCCGTTACCG	1.04
TCCGTTTAT	1.09
TCCGTTTCCA	1.05
TCCTAATCCC	1.05
TCCTAATGA	0.984
TCCTAGAAAA	1.08
TCCTAGATTC	1.03
TCCTATTCTA	1.01
TCCTCCAGTT	1.01
TCCTCGGACT	1.31
TCCTCGTTAT	0.999
TCCTGCATCA	1.12
TCCTGCCCAG	1.37
TCCTGCGGCT	1.01
TCCTGGCCGT	1.07
TCCTGGGTCC	0.969
TCCTGTAAAC	1.34
TCCTGTAGGA	1
TCCTGTCGTT	0.996
TCCTTAACGG	1.01
TCCTTAATAT	1.05
TCCTTGACGT	1.02

Sequence	switch fluorescence ratio
TCCTTGGCGA	1.01
TCCTTGTTAT	0.97
TCCTTTAAGC	1.22
TCCTTTGAGA	1.02
TCGAAAAATG	1
TCGAAAACTA	1.04
TCGAAATAGA	0.971
TCGAACGA	1.03
TCGAATTCAG	1.01
TCGACATCGC	1.08
TCGACATTCA	1.03
TCGACGGCAG	0.983
TCGACTGGCA	1.38
TCGAGATAG	1.07
TCGAGCTGCA	1.02
TCGAGGTCCG	0.919
TCGAGTACCC	1.06
TCGAGTACCT	1.12
TCGAGTCACG	1.06
TCGATCCCCA	1.04
TCGATCGATA	1.02
TCGATCTCGA	1.01
TCGATTTAAT	0.983
TCGATTTCAA	0.976
TCGATTTGGG	1.03
TCGCAAAAAT	1.01

Sequence	switch fluorescence ratio
TCGCAATGTG	3.06
TCGCACGCCT	1.11
TCGCAGGTTA	1.66
TCGCATACGT	1.65
TCGCATGCAC	2.06
TCGCATGGT	1.16
TCGCCAAATG	1.04
TCGCCAGACA	1.01
TCGCCATG	0.998
TCGCCCTATC	1.08
TCGCCGAGAT	2.03
TCGCCGGGGC	1.01
TCGCCTCAGC	2.26
TCGCCTTCAG	1.04
TCGCGGTCCG	1.02
TCGCTCCCTG	1.06
TCGCTCTATT	0.992
TCGCTGAACA	1.03
TCGCTGTCCG	0.999
TCGCTTAGTG	1.01
TCGCTTGA	1.04
TCGCTTGGGC	0.967
TCGGAAGGAG	1.01
TCGGACTTGC	1
TCGGAGAAAG	1
TCGGAGATGC	1.14

Sequence	switch fluorescence ratio
TCGGAGTACA	1.18
TCGGATAGC	1.02
TCGGATCAC	1.04
TCGGATGTAA	1.04
TCGGATTCGG	0.985
TCGGATTGT	0.944
TCGGCAGATA	1.02
TCGGCATGTT	0.985
TCGGCGATGG	1.01
TCGGCGATTA	1.03
TCGGCTGCGA	1.26
TCGGGACC	0.992
TCGGGAGGAT	0.994
TCGGGATACA	1.06
TCGGGATGGA	0.994
TCGGGCATTC	1.44
TCGGGCGGGA	1.08
TCGGGCGGTC	1.04
TCGGGCTTTG	0.978
TCGGGGAGCA	1.03
TCGGGGGCTC	1.03
TCGGGTCGCT	1.01
TCGGGTCTAG	0.996
TCGGTAAAA	0.959
TCGGTACTTT	0.993
TCGGTAGCCC	1.01

Sequence	switch fluorescence ratio
TCGGTAGTAA	1.1
TCGGTCATAA	0.99
TCGGTTAAAA	0.971
TCGGTTGACA	0.951
TCGGTTGGCT	0.964
TCGGTTTACA	0.969
TCGTACAGTC	0.98
TCGTACCACC	1.21
TCGTACTATT	0.964
TCGTAGACAA	1.33
TCGTAGGGAT	1.49
TCGTAGTCGG	0.93
TCGTAGTGAC	1.29
TCGTATACTT	1.01
TCGTATAGCT	1.01
TCGTATTAAT	0.989
TCGTATTTG	1
TCGTCAATGT	1.15
TCGTCCTGAT	0.969
TCGTCGATTG	0.972
TCGTCTAGGG	1.02
TCGTCTCTCA	1.03
TCGTCTGGGG	0.996
TCGTGACT	1.04
TCGTGCCGAT	1
TCGTGCGATA	1.16

Sequence	switch fluorescence ratio
TCGTGGAGTG	1.01
TCGTGGCCAG	0.953
TCGTGGCGGG	1.04
TCGTGTAATT	0.954
TCGTGTGGTA	0.967
TCGTGTGTAG	1.02
TCGTGTTGTA	1.03
TCGTTGCTTC	1.03
TCGTTGTACG	1.02
TCGTTGTTG	1.05
TCGTTTAGGC	0.973
TCGTTTTGGA	0.981
TCTAACTAC	1.04
TCTAAGATTA	1.07
TCTAAGCTTC	1.12
TCTAATACGA	2.59
TCTACAAAGA	0.993
TCTACAGCA	1.22
TCTACCGGTC	1.05
TCTAGATACA	1.06
TCTAGATATT	0.981
TCTAGGCAC	1.04
TCTAGGCCGG	0.962
TCTAGGTATA	0.983
TCTAGTAGTA	0.999
TCTAGTGC	0.989

Sequence	switch fluorescence ratio
TCTATAAAAT	1.01
TCTATACTCT	1.06
TCTATGAGCC	0.987
TCTATGAGTT	0.98
TCTATTGGCA	1.01
TCTATTGGTA	1.04
TCTCACCGAC	1.59
TCTCAGACGA	1.02
TCTCAGGGCT	1.01
TCTCATGAGA	1
TCTCATTGTA	0.991
TCTCATTGTC	1
TCTCCCATCT	1.44
TCTCGAATGT	1.05
TCTCGACTTA	1.01
TCTCGATGTG	0.96
TCTCGCAGG	1.27
TCTCGCGTTC	1.58
TCTCGGACAA	1.67
